From the antibiotic and cytotoxicity screens of Wong et al. (2023)
The other results are listed elsewhere or left out.

Key:
HSkMC = human skeletal muscle cells; experiment: cytotoxicity call (relative viability < 0.9); conditions: 10 µM
HepG2 = experiment: cytotoxicity call (relative viability < 0.9); conditions: 10 µM
S. aureus RN4220 = experiment: growth inhibition call (relative growth <= 0.2); conditions: 50 µM

Row | SMILES | cytotoxicity call (HSkMC) | cytotoxicity call (HepG2) | growth inhibition call (S. aureus RN4220)
1 | C[C@@H]1CN([C@H](C)CO)S(=O)(=O)c2ccc(-c3cccc(C#N)c3)cc2O[C@H]1CN(C)C(=O)c1ccncc1 | inactive | inactive | inactive
2 | Cc1ccc(S(=O)(=O)N(C)C[C@@H]2Oc3ccc(NC(=O)c4ccncc4)cc3CC(=O)N([C@@H](C)CO)C[C@H]2C)cc1 | inactive | inactive | inactive
3 | Cc1ccc(S(=O)(=O)Nc2ccc3c(c2)CC(=O)N([C@@H](C)CO)C[C@H](C)[C@@H](CN(C)C(=O)NC(C)C)O3)cc1 | inactive | inactive | inactive
4 | Nn1c(=S)[nH]c2cc(C(=O)O)ccc2c1=O | inactive | inactive | inactive
5 | COc1ccc(CN(C)C[C@H]2OCCCC[C@H](C)Oc3ccc(NC(=O)Nc4ccc(C(F)(F)F)cc4)cc3C(=O)N([C@@H](C)CO)C[C@H]2C)cc1 | active | active | inactive
6 | Cc1noc(C)c1S(=O)(=O)Nc1ccc2c(c1)C(=O)N([C@@H](C)CO)C[C@H](C)[C@@H](CN(C)S(=O)(=O)c1ccccc1)O2 | inactive | inactive | inactive
7 | CC(=O)N=c1sc(S(N)(=O)=O)nn1C | inactive | inactive | inactive
8 | C[C@@H]1CCCCO[C@H](CN(C)C(=O)Cc2ccccc2)[C@@H](C)CN([C@H](C)CO)C(=O)c2cc(NC(=O)NC3CCCCC3)ccc2O1 | inactive | inactive | inactive
9 | Cc1noc(C)c1S(=O)(=O)Nc1ccc2c(c1)C(=O)N([C@H](C)CO)C[C@@H](C)[C@H](CN(C)C(=O)Nc1ccc(F)cc1)OCCCC[C@@H](C)O2 | inactive | inactive | inactive
10 | C[C@@H]1CN([C@H](C)CO)C(=O)c2cccc(NC(=O)NC3CCCCC3)c2O[C@H]1CN(C)Cc1ccc(C(F)(F)F)cc1 | inactive | inactive | inactive
11 | C[C@@H]1CCCCO[C@@H](CN(C)S(=O)(=O)c2cn(C)cn2)[C@@H](C)CN([C@H](C)CO)C(=O)c2cc(NS(=O)(=O)c3cn(C)cn3)ccc2O1 | inactive | inactive | inactive
12 | COCC(=O)Nc1ccc2c(c1)C(=O)N(C)C[C@@H](OC)[C@H](C)CN(C(=O)Nc1ccccc1F)[C@H](C)CO2 | inactive | inactive | inactive
13 | C[C@H]1CN([C@@H](C)CO)S(=O)(=O)c2ccc(C#CC3CC3)cc2O[C@H]1CN(C)C(=O)Cc1ccncc1 | inactive | inactive | inactive
14 | C[C@@H]1CN([C@H](C)CO)S(=O)(=O)c2ccc(C3=CCCC3)cc2O[C@H]1CN(C)C(=O)c1cnccn1 | inactive | inactive | inactive
15 | C[C@@H]1CCCCO[C@@H](CN(C)C(=O)C2CCCCC2)[C@@H](C)CN([C@H](C)CO)C(=O)c2cc(NC(=O)c3ccccc3)ccc2O1 | inactive | inactive | inactive
16 | COc1ccc(CNC(=O)C[C@H]2CC[C@@H]3[C@H](COc4ccc(NC(=O)C(C)C)cc4C(=O)N3C)O2)cc1 | inactive | inactive | inactive
17 | C[C@@H]1CCCCO[C@@H](CN(C)C(=O)Nc2ccc(F)cc2)[C@@H](C)CN([C@H](C)CO)C(=O)c2cc(NC(=O)c3ccncc3)ccc2O1 | inactive | inactive | inactive
18 | C[C@H]1CN([C@@H](C)CO)C(=O)c2cccc(NC(=O)NC3CCCCC3)c2O[C@@H]1CN(C)Cc1ccc(-c2ccccc2)cc1 | inactive | inactive | inactive
19 | COc1ccc(S(=O)(=O)N(C)C[C@H]2Oc3ccc(NS(=O)(=O)c4c(C)noc4C)cc3CC(=O)N([C@H](C)CO)C[C@H]2C)cc1 | inactive | inactive | inactive
20 | C[C@H](CO)N1C[C@H](C)[C@@H](CN(C)Cc2ccc(Cl)c(Cl)c2)Oc2c(NS(=O)(=O)c3ccc(Cl)cc3)cccc2C1=O | inactive | inactive | inactive
21 | C[C@@H]1CN([C@@H](C)CO)C(=O)c2cc(NC(=O)C3CC3)ccc2O[C@@H]1CN(C)C(=O)NC1CCCCC1 | inactive | inactive | inactive
22 | C[C@@H]1CN([C@@H](C)CO)C(=O)c2cccc(NC(=O)c3cnccn3)c2O[C@@H]1CN(C)S(=O)(=O)c1cccs1 | inactive | inactive | inactive
23 | C[C@H]1CN([C@@H](C)CO)C(=O)c2c(c3ccccc3n2C)-c2ccccc2CO[C@H]1CN(C)C(=O)c1cc(Cl)cc(Cl)c1 | inactive | inactive | inactive
24 | C[C@@H]1CN([C@H](C)CO)C(=O)c2cccc(NC(=O)C3CCOCC3)c2O[C@H]1CN(C)C(=O)NC1CCCCC1 | inactive | inactive | inactive
25 | C[C@@H]1CN([C@H](C)CO)C(=O)Cc2cc(NC(=O)Nc3ccc(C(F)(F)F)cc3)ccc2O[C@H]1CN(C)C(=O)Nc1ccccc1 | inactive | inactive | inactive
26 | COc1ccc(S(=O)(=O)N(C)C[C@H]2Oc3c(NS(=O)(=O)c4cn(C)cn4)cccc3C(=O)N([C@H](C)CO)C[C@H]2C)cc1 | inactive | inactive | inactive
27 | Cc1noc(C)c1NC(=O)N(C)C[C@H]1Oc2ccc(NC(=O)Nc3ccc(C(F)(F)F)cc3)cc2C(=O)N([C@H](C)CO)C[C@@H]1C | inactive | inactive | inactive
28 | O=C(NN=Cc1ccc([N+](=O)[O-])o1)c1ccc(O)cc1 | inactive | active | inactive

Row | SMILES | cytotoxicity call (HSkMC) | cytotoxicity call (HepG2) | growth inhibition call (S. aureus RN4220)
29 | C[C@@H]1CN([C@@H](C)CO)C(=O)Cc2cc(NC(=O)CCN3CCOCC3)ccc2O[C@H]1CN(C)S(=O)(=O)c1ccc(Cl)cc1 | inactive | inactive | inactive
30 | Cc1ccc(S(=O)(=O)Nc2cccc3c2O[C@@H](CN(C)Cc2ccc(Oc4ccccc4)cc2)[C@H](C)CN([C@H](C)CO)C3=O)cc1 | inactive | inactive | inactive
31 | COc1ccc(S(=O)(=O)N(C)C[C@H]2Oc3ccc(NS(C)(=O)=O)cc3C(=O)N([C@@H](C)CO)C[C@@H]2C)cc1 | inactive | inactive | inactive
32 | OC(Cn1cncn1)(Cn1cncn1)c1ccc(F)cc1F | inactive | inactive | inactive
33 | COc1cccc(S(=O)(=O)N[C@H]2CC[C@@H](CCn3cc(-c4ccccc4OC)nn3)O[C@@H]2CO)c1 | inactive | inactive | inactive
34 | COc1ccc(S(=O)(=O)N(C)C[C@@H]2OCCCC[C@@H](C)Oc3ccc(NC(=O)Nc4cccc5ccccc45)cc3C(=O)N([C@@H](C)CO)C[C@@H]2C)cc1 | inactive | inactive | inactive
35 | CNC[C@@H]1Oc2ccc(NC(=O)Cn3cnnn3)cc2C(=O)N([C@H](C)CO)C[C@H]1C | inactive | inactive | inactive
36 | COc1cc(C(=S)N2CCOCC2)ccc1O | inactive | inactive | inactive
37 | COc1ccc(NC(=O)Nc2ccc3c(c2)C(=O)N([C@H](C)CO)C[C@@H](C)[C@H](CN(C)C(=O)Nc2cccc4ccccc24)O3)cc1 | inactive | inactive | inactive
38 | CCCCC/C=C\C/C=C\CCCCCCCCCC(=O)O | inactive | inactive | inactive
39 | Nc1nnc(CC(=O)O)[nH]1 | inactive | inactive | inactive
40 | C[C@H](CO)N1C[C@H](C)[C@H](CN(C)S(=O)(=O)c2ccc(F)cc2)Oc2cc(C3=CCCC3)ccc2S1(=O)=O | inactive | inactive | inactive
41 | C[C@@H]1CN([C@H](C)CO)C(=O)c2cc(C#CCN(C)C)cnc2O[C@H]1CN(C)Cc1ccc2c(c1)OCO2 | inactive | inactive | inactive
42 | C[C@@H]1CN([C@@H](C)CO)C(=O)c2cc(NS(=O)(=O)c3cn(C)cn3)ccc2O[C@H]1CN(C)S(=O)(=O)c1ccc(Cl)cc1 | inactive | inactive | inactive
43 | C[C@@H]1CN([C@@H](C)CO)C(=O)c2cc(NS(=O)(=O)c3ccc(Cl)cc3)ccc2O[C@@H](C)CCCCO[C@@H]1CN(C)C(=O)Cc1ccccc1 | inactive | inactive | inactive
44 | Cc1ccc(S(=O)(=O)N(C)C[C@@H]2Oc3ccc(NS(=O)(=O)c4ccccc4)cc3CC(=O)N([C@H](C)CO)C[C@@H]2C)cc1 | inactive | inactive | inactive
45 | C[C@@H]1CN([C@H](C)CO)C(=O)c2cccc(N(C)C)c2O[C@@H]1CN(C)S(C)(=O)=O | inactive | inactive | inactive
46 | CCCNC(=O)N1C[C@H](C)[C@H](OC)CN(C)C(=O)c2cc(NS(=O)(=O)CC(F)(F)F)ccc2OC[C@H]1C | inactive | inactive | inactive
47 | COc1cccc(NC(=O)N(C)C[C@@H]2Oc3cc(C#Cc4ccncc4)ccc3S(=O)(=O)N([C@H](C)CO)C[C@@H]2C)c1 | inactive | active | inactive
48 | C[C@@H]1CN([C@H](C)CO)S(=O)(=O)c2ccc(C#Cc3ccccc3)cc2O[C@@H]1CN(C)C(=O)c1ccccn1 | inactive | inactive | inactive
49 | Cc1ccc(-c2ccc3c(c2)O[C@H](CN(C)C(=O)Nc2ccc(C(F)(F)F)cc2)[C@H](C)CN([C@H](C)CO)S3(=O)=O)cc1 | inactive | inactive | inactive
50 | CN1CCN(C(=O)C[C@@H]2CC[C@@H]3[C@@H](COc4ccc(NC(=O)C5CCOCC5)cc4C(=O)N3C)O2)CC1 | inactive | inactive | inactive
51 | COc1ccc(S(=O)(=O)Nc2ccc3c(c2)C(=O)N([C@@H](C)CO)C[C@@H](C)[C@@H](CN(C)C(=O)Nc2ccc(C(F)(F)F)cc2)OCCCC[C@H](C)O3)cc1 | inactive | inactive | inactive
52 | COc1ccc(C#Cc2ccc3c(c2)O[C@H](CN(C)C(C)=O)[C@H](C)CN([C@@H](C)CO)S3(=O)=O)cc1 | inactive | inactive | inactive
53 | CC(=O)OC1CCC2(C)C3=C(CCC2C1(C)C)C1(C)CCC(C(C)CCC=C(C)C)C1(C)CC3 (stereo not given) | inactive | inactive | inactive
54 | CC(C)CC#Cc1ccc2c(c1)O[C@@H](CN(C)Cc1cncnc1)[C@H](C)CN([C@H](C)CO)S2(=O)=O | inactive | inactive | inactive
55 | CCN(CC)CCCn1c(/C=C/c2ccc(O)c(OC)c2)cc(/C=C/c2ccc(O)c(OC)c2)nc1=S | inactive | inactive | inactive
